Tests used:
male wistar rats = assay: Toxicity test, oral administration for four days; settings: 100 mg/kg/day orally for four days
PDE type V = target: T1, PDE type V (Canis lupus familiaris, UniProt O77746); assay: PDE inhibiting activity, type V; assay type: biochemical, dog; settings: PDE purified from canine aorta; 1 µM substrate cGMP or cAMP; read-out: Inhibition Activity IC50 (µM) Type V
T1 construct: By elution with a sodium chloride gradient (0 - 0.4 M), PDE types V and III were separated from the other isozymes; from tissue; host or cells: canine aorta

PDE type I = assay: PDE inhibiting activity, type I; assay type: biochemical, dog; settings: PDE purified from canine aorta; 1 µM substrate cGMP or cAMP; read-out: Inhibition Activity IC50 (µM) Type I
Protocol: On the basis of the method of Lugnier et al. (Biochem. Pharmacol., 35, 1743-1751, 1986), PDE was purified from the aorta in a dog. The canine aorta was minced and homogenized with a Waring Blender and a glass homogenizer in six volumes of a Tris-HCl buffer solution (pH 7.5, 20 mM) containing 2 mM magnesium acetate, 5 mM ethylenediaminetetraacetic acid (EDTA), 100 µg/mL of phenylmethylsulforyl fluoride and 15 mM 2-mercaptoethanol (2-ME), and centrifuged at 1200 x g for 30 min. The supernatant was separated and salted out with ammonium sulfate which was added to 45% saturation. The resulting precipitated fraction was resuspended in a Tris-HCl buffer solution (pH 7.5, 20 mM) containing 2 mM magnesium acetate and 1 mM 2-ME, dialyzed overnight and applied to a DEAE-trisacryl column (DEAE […] M:IBF). By elution with a sodium chloride gradient (0 - 0.4 M), PDE types V and III were separated from the other isozymes. […]
The thus obtained PDE types V, III and I were measured for their activity in accordance with the method of Thompson et al. (Adv. Cyclic Nucleotide Res., 10, 69-72, 1979) and the method of Wells et al. (Biochim. Biophys. Acta, 384, 430-443, 1975). […] The activity of each test compound was determined as a percentage of the PDE activity measured when it was added as a dimethyl sulfoxide solution (DMSO) and its IC50 (50% inhibition concentration) was calculated by the probit method. […]

SMILES	abnormal change in body weight and general symptoms (male wistar rats)	dead case (male wistar rats; until the next morning of the completion of the administration)	IC50 (PDE type V) [µM]	IC50 (PDE type I) [µM]
O=c1c(Cc2cccnc2)cn2c3cc(Br)ccc3c3cc(OCCCO)cc1c32 [Example 38, 9-bromo-2-(3-hydroxypropyloxy)-5-(3-pyridylmethyl)-4H-pyrido[3,2,1-jk]carbazol-4-one]	no abnormal change	–	–	–
O=c1ccn2c3ccc(Cl)cc3c3cccc1c32 [Example 44, 10-chloro-4H-pyrido[3,2,1-jk]carbazol-4-one]	no abnormal change	no dead case	–	–
CC(C)(C)OC(=O)COc1cc2c(=O)c(Cc3cccnc3)cn3c4ccc(Br)cc4c(c1)c23 [Example 3, 10-bromo-2-t-butoxycarbonylmethyloxy-5-(3-pyridylmethyl)-4H-pyrido[3,2,1-jk]carbazol-4-one]	–	–	0.0075	> 30
Cc1cn2c3ccc(Br)cc3c3cc(OCC(=O)OC(C)(C)C)cc(c1=O)c32 [Example 15, 10-bromo-2-t-butoxycarbonylmethyloxy-5-methyl-4H-pyrido[3,2,1-jk]carbazol-4-one]	–	–	0.0015	> 30
O=c1c(Cc2cccnc2)cn2c3cc(Br)ccc3c3cc(OCc4cccnc4)cc1c32 [Example 34, 9-bromo-5-(3-pyridylmethyl)-2-(3-pyridylmethyloxy)-4H-pyrido[3,2,1-jk]carbazol-4-one]	–	–	0.018	–
